Experimental data reported in the supplement of paper PMC8728848.
The other results are listed elsewhere or left out.

Legend:
Assay in all cases: glycan array binding signal (z-score within array); higher = stronger binding
Conditions in all cases: glycan notation: IUPAC condensed, linker removed
[1] = molecular target: Neu5Ac(a2-6)Gal(b1-4)GlcNAc(b1-6)GalNAc
Procedure, shortened: (§1)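 Glycan array data came from 3228 arrays in the Consortium for Functional Glycomics database, and only arrays with an available protein sequence were kept. Glycan names were put into IUPAC-condensed notation, and columns mapping to the same glycan were averaged. The binding signal is a within-array Z-score, averaged across arrays of one protein sequence run at different concentrations or buffers and across linkers. A negative Z-score can be read as non-binding.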

[2] = molecular target: Neu5Ac(a2-6)Gal(b1-4)GlcNAc(b1-6)[Gal(b1-3)GlcNAc(b1-3)]Gal(b1-4)Glc
Procedure, shortened: as §1

[3] = molecular target: Neu5Ac(a2-6)Gal(b1-4)GlcNAc(b1-6)[Gal(b1-3)]GalNAc
Procedure, shortened: as §1

[4] = molecular target: Neu5Ac(a2-6)Gal(b1-4)GlcNAc6S
Procedure, shortened: as §1

[5] = molecular target: Neu5Ac(a2-6)GalNAc
Procedure, shortened: as §1

[6] = molecular target: Neu5Ac(a2-6)GalNAc(b1-4)GlcNAc
Procedure, shortened: as §1

[7] = molecular target: Neu5Ac(a2-6)GalNAc(b1-4)GlcNAc6S
Procedure, shortened: as §1

[8] = molecular target: Neu5Ac(a2-6)GlcNAc(b1-4)GlcNAc
Procedure, shortened: as §1

[9] = molecular target: Neu5Ac(a2-6)GlcNAc(b1-4)GlcNAc(b1-4)GlcNAc
Procedure, shortened: as §1

[10] = molecular target: Neu5Ac(a2-8)Neu5Ac
Procedure, shortened: as §1

[11] = molecular target: Neu5Ac(a2-8)Neu5Ac(a2-3)Gal(b1-3)GalNAc(b1-4)[Neu5Ac(a2-3)]Gal(b1-4)Glc
Procedure, shortened: as §1

[12] = molecular target: Neu5Ac(a2-8)Neu5Ac(a2-3)Gal(b1-3)GalNAc(b1-4)[Neu5Ac(a2-8)Neu5Ac(a2-3)]Gal(b1-4)Glc
Procedure, shortened: as §1

[13] = molecular target: Neu5Ac(a2-8)Neu5Ac(a2-3)Gal(b1-4)Glc
Procedure, shortened: as §1

[14] = molecular target: Neu5Ac(a2-8)Neu5Ac(a2-3)Gal(b1-4)GlcNAc
Procedure, shortened: as §1

[15] = molecular target: Neu5Ac(a2-8)Neu5Ac(a2-3)[Gal(b1-3)GalNAc(b1-4)]Gal(b1-4)Glc
Procedure, shortened: as §1

[16] = molecular target: Neu5Ac(a2-8)Neu5Ac(a2-3)[GalNAc(b1-4)]Gal(b1-4)Glc
Procedure, shortened: as §1

[17] = molecular target: Neu5Ac(a2-8)Neu5Ac(a2-8)Neu5Ac
Procedure, shortened: as §1

[18] = molecular target: Neu5Ac(a2-8)Neu5Ac(a2-8)Neu5Ac(a2-3)Gal(b1-4)Glc
Procedure, shortened: as §1

[19] = molecular target: Neu5Ac(a2-8)Neu5Ac(a2-8)Neu5Ac(a2-3)[Gal(b1-3)GalNAc(b1-4)]Gal(b1-4)Glc
Procedure, shortened: as §1

[20] = molecular target: Neu5Ac(a2-8)Neu5Ac(a2-8)Neu5Ac(a2-3)[GalNAc(b1-4)]Gal(b1-4)Glc
Procedure, shortened: as §1

[21] = molecular target: Neu5Ac(a2-8)Neu5Ac(a2-8)Neu5Ac(a2-8)Neu5Ac(a2-3)[GalNAc(b1-4)]Gal(b1-4)Glc
Procedure, shortened: as §1

[22] = molecular target: Neu5Ac(a2-8)Neu5Gc(a2-3)Gal(b1-4)GlcNAc
Procedure, shortened: as §1

[23] = molecular target: Neu5Ac(b2-6)Gal(b1-4)GlcNAc
Procedure, shortened: as §1

[24] = molecular target: Neu5Ac(b2-6)GalNAc
Procedure, shortened: as §1

[25] = molecular target: Neu5Ac9Ac(a2-3)Gal(b1-3)GlcNAc
Procedure, shortened: as §1

[26] = molecular target: Neu5Ac9Ac(a2-3)Gal(b1-4)GlcNAc
Procedure, shortened: as §1

[27] = molecular target: Neu5Ac9Ac(a2-6)Gal(b1-4)GlcNAc
Procedure, shortened: as §1

[28] = molecular target: Neu5Gc(a2-3)Gal(b1-3)GlcNAc
Procedure, shortened: as §1

[29] = molecular target: Neu5Gc(a2-3)Gal(b1-3)[Fuc(a1-4)]GlcNAc
Procedure, shortened: as §1

[30] = molecular target: Neu5Gc(a2-3)Gal(b1-4)Glc
Procedure, shortened: as §1

[31] = molecular target: Neu5Gc(a2-3)Gal(b1-4)GlcNAc
Procedure, shortened: as §1

[32] = molecular target: Neu5Gc(a2-3)Gal(b1-4)GlcNAc(b1-3)Gal(b1-4)GlcNAc(b1-2)Man(a1-3)[Neu5Gc(a2-3)Gal(b1-4)GlcNAc(b1-3)Gal(b1-4)GlcNAc(b1-2)Man(a1-6)]Man(b1-4)GlcNAc(b1-4)GlcNAc
Procedure, shortened: as §1

[33] = molecular target: Neu5Gc(a2-3)Gal(b1-4)[Fuc(a1-3)]GlcNAc
Procedure, shortened: as §1

[34] = molecular target: Neu5Gc(a2-6)Gal(b1-4)GlcNAc
Procedure, shortened: as §1

[35] = molecular target: Neu5Gc(a2-6)GalNAc
Procedure, shortened: as §1

[36] = molecular target: Neu5Gc(a2-8)Neu5Ac(a2-3)Gal(b1-4)GlcNAc
Procedure, shortened: as §1

[37] = molecular target: Neu5Gc(a2-8)Neu5Gc(a2-3)Gal(b1-4)GlcNAc
Procedure, shortened: as §1

[38] = molecular target: Neu5Gc(a2-8)Neu5Gc(a2-3)Gal(b1-4)GlcNAc(b1-3)Gal(b1-4)GlcNAc
Procedure, shortened: as §1

[39] = molecular target: Neu5Gc(a2-8)Neu5Gc(a2-6)Gal(b1-4)GlcNAc
Procedure, shortened: as §1

[40] = molecular target: Neu5Gc(b2-6)Gal(b1-4)GlcNAc
Procedure, shortened: as §1

B1: Gal 9 (Homo sapiens), O00182 (protein)
chain: MAFSGSQAPYLSPAVPFSGTIQGGLQDGLQITVNGTVLSSSGTRFAVNFQTGFSGNDIAFHFNPRFEDGGYVVCNTRQNGSWGPEERKTHMPFQKGMPFDLCFLVQSSDFKVMVNGILFVQYFHRVPFHRVDTISVNGSVQLSYISFQNPRTVPVQPAFSTVPFSQPVCFPPRPRGRRQKPPGVWPANPAPITQTVIHTVQSAPGQMFSTPAIPPMMYPHPAYPMPFITTILGGLYPSKSILLSGTVLPSAQRFHINLCSGNHIAFHLNPRFDENAVVRNTQIDNSWGSEERSLPRKMPFVRGQSFSVWILCEAHCLKVAVDGQHLFEYYHRLRNLPTINRLEVGGDIQLTHVQT
B1 was tested, and the “glycan array binding signal (z-score)” value [1] was -0.262, the “glycan array binding signal (z-score)” value [2] was -0.286 and the “glycan array binding signal (z-score)” value [3] was -0.255. The “glycan array binding signal (z-score)” value [4] was -0.321, the “glycan array binding signal (z-score)” value [5] was -0.322 and the “glycan array binding signal (z-score)” value [6] was -0.326. The “glycan array binding signal (z-score)” value [7] was -0.291, the “glycan array binding signal (z-score)” value [8] was -0.332 and the “glycan array binding signal (z-score)” value [9] was -0.318. For the same binder, the “glycan array binding signal (z-score)” value [10] was -0.316, the “glycan array binding signal (z-score)” value [11] was -0.287 and the “glycan array binding signal (z-score)” value [12] was -0.263. For the same binder, the “glycan array binding signal (z-score)” value [13] was -0.306, the “glycan array binding signal (z-score)” value [14] was -0.19 and the “glycan array binding signal (z-score)” value [15] was -0.316. For the same binder, the “glycan array binding signal (z-score)” value [16] was -0.333, the “glycan array binding signal (z-score)” value [17] was -0.323 and the “glycan array binding signal (z-score)” value [18] was -0.325. The “glycan array binding signal (z-score)” value [19] was -0.303, the “glycan array binding signal (z-score)” value [20] was -0.309 and the “glycan array binding signal (z-score)” value [21] was -0.31. The “glycan array binding signal (z-score)” value [22] was -0.265, the “glycan array binding signal (z-score)” value [23] was -0.346 and the “glycan array binding signal (z-score)” value [24] was -0.328. The “glycan array binding signal (z-score)” value [25] was -0.319, the “glycan array binding signal (z-score)” value [26] was -0.197 and the “glycan array binding signal (z-score)” value [27] was -0.325. For the same binder, the “glycan array binding signal (z-score)” value [28] was -0.244, the “glycan array binding signal (z-score)” value [29] was -0.321 and the “glycan array binding signal (z-score)” value [30] was -0.303. The “glycan array binding signal (z-score)” value [31] was -0.206, the “glycan array binding signal (z-score)” value [32] was -0.271 and the “glycan array binding signal (z-score)” value [33] was -0.312. The “glycan array binding signal (z-score)” value [34] was -0.325, the “glycan array binding signal (z-score)” value [35] was -0.318 and the “glycan array binding signal (z-score)” value [36] was -0.292. The “glycan array binding signal (z-score)” value [37] was -0.298, the “glycan array binding signal (z-score)” value [38] was -0.282 and the “glycan array binding signal (z-score)” value [39] was -0.269. For the same binder, the “glycan array binding signal (z-score)” value [40] was -0.305.
